Experimental data: ChEMBL document CHEMBL4888484, “Replenishing the malaria drug discovery pipeline: Screening and hit evaluation of the MMV Hit Generation Library 1 (HGL1) against asexual blood stage Plasmodium falciparum ,using a nano luciferase reporter read-out” (2022)
“And” between values parts separate entries of the source, which are not always exact repeats. Equal entries are not always repeated. In all, about 150,000 compounds went through this assay and about 540 (0.36%) showed an effect of 50% or more. The list shows a part of the results.

System: Plasmodium falciparum
Experiment: Primary screen in NF54 nanoGlo assay, in single point, at 2uM, 72h; a lower Z score goes with more inhibition
Assay type: functional, Erythrocyte
Conditions: timepoint 72 hour

SMILES | % Inhibition [%] | Z score | Z score (2 µM)
COc1cc2c(cc1OC)[C@@H](NC(=O)c1[nH]nc3c1CCC3)CC2 | -5 | 0.69 | 
O=C(NC1(CN2CCOCC2)CCCC1)c1cccc(-c2cc(O)ncn2)c1 | 7 | -0.88 | 
C[C@@H](Cn1cnc2c1CCCC2)C(=O)O | -7 | 1.24 | 
COc1ccccc1N1CCN(C(=O)c2nn[nH]c2Nc2ccccc2F)CC1 | -1 | 0.19 | 
CN(CC1(N(C)C)CCC1)C(=O)c1cn(C)nc1C1CC1 | -1 | 0.2 | 
O=C(NCN1CCOCC1)c1ccccc1Cl | 9 | -1.04 | 
CCc1c(C(=O)N2CC(CO)OCC2C)cnn1CC(C)C (stereo not given) | -4 | 0.36 | 
O=S(=O)(NC1(c2ccc(Br)cc2)CCC1)c1ccccc1 | 0 | 0.04 | 
COc1ccc(C(C)(C)C)cc1CNc1nc(C)cc(=O)[nH]1 | 6 | -0.8 | 
Cc1ccc(-n2nc(C)cc2NC(=O)CCc2ccc(C)o2)nn1 | -30 | 3.57 | 
COc1ccc(C(=O)N2CCN(c3nc(Cc4ccc(C)cc4)nc4c3c(C)nn4-c3ccccc3)CC2)cc1 | 3 | -0.6 | 
Cc1ccc(-c2nc3c(=O)[nH]cnc3o2)cc1 | -14 | 2.6 | 
CC(=O)Nc1cc(-c2nc(-c3ccc4c(c3)nc(C)c(=O)n4C3CCCC3)no2)ccc1C | -12 | 1.16 | 
Cc1nn(C)c(C)c1NC(=O)CN(C1CCCC1)C1CC1 | -6 | 1.15 | 
CO[C@@H](CNC(=O)C1CCC1)c1ccco1 | 17 | -2.22 | 
COCCOc1ccc(CNC(=O)c2cc3cccc(F)c3o2)cn1 | -11 | 2.15 | 
Cc1ccc(S(=O)(=O)N2CCC[C@H](n3cnc4ccccc4c3=O)C2)cc1Cl | -7 | 1.11 | 
COc1cccc(CN2CCC[C@@]3(CCN(C(=O)c4cccc(C)n4)C3)C2)c1OC | -4 | 0.61 | 
CCc1[nH]nc(-c2ccccc2)c1NC(=O)c1ccccc1OC | -11 | 1.04 | 
CCOc1cc2c(C#N)c(OCC)nc3c2c(n1)NC1(CCCCC1)N3 | 4 | -0.58 | 
CCc1ccnc(C(=O)Nc2ncncc2C(C)C)c1 | -4 | 0.73 | 

SMILES | % Inhibition [%] | Z score | Z score (2 µM)
CC(C)Cn1nccc1C(=O)Nc1cncc(C(C)C)c1 | -1 | 0.15 | 
CCc1csc(-c2c(CC)c(CC)n[nH]c2=O)n1 | 0 | -0.04 | 
NCc1ccc(-c2noc(C3CC4CCCCC(C3)C4=O)n2)c(F)c1 (stereo not given) | 0 | -0.01 | 
CC(=O)NCCc1cn(-c2ccc3c(c2)OC(F)(F)O3)cn1 | -2 | 0.4 | 
O=C(c1ccccc1)N1CCC[C@@H]1CCc1noc(C2CC2)n1 | -1 | 0.1 | 
O=C(c1cc[nH]c1C1CC1)N1CCN[C@H](c2cccc(Cl)c2)C1 | -6 | 0.77 | 
CC1CC1c1ccc(CN(C)S(=O)(=O)N(C)C(C)C)o1 (stereo not given) | -9 | 1.13 | 
CCCc1c(-c2ccccc2)nc(N2CCN(C(c3ccccc3)c3ccccc3)CC2)[nH]c1=O | -11 | 1.61 | 
Cn1ccnc1-c1nccn1C[C@H](O)c1cccnc1 | -5 | 0.78 | 
O=C(Cn1ncc2c([nH]c3ccccc32)c1=O)NCc1ccc2c(c1)OCO2 | -1 | 0.22 | 
COCCC(NC(=O)C(C)OC)c1ccc(Cl)cc1 (stereo not given) | 33 | -3.77 | 
Cc1ncc(-c2nc(C3CC3)no2)s1 | -3 | 0.49 | 
Cc1nc(C)n(CCCNC(=O)[C@@H](c2ccc(F)cc2)N2CCCCC2)n1 | -6 | 0.71 | 
CCCNC(=O)COc1c(C)[nH]c2ccccc2c1=O | -11 | 1.33 | 
O=C(CCCc1ncc(-c2ccccc2)o1)N[C@H]1CCS(=O)(=O)C1 | -17 | 1.57 | 
COCCN(CC(=O)N(Cc1ccc(C)cc1)C1CCN(C(=O)c2ccc(F)cc2)CC1)S(=O)(=O)c1ccccc1 | 2 | -0.3 | 
CCn1cc(C(=O)N(Cc2ccccc2)CC2(O)CCCC2)cn1 | -3 | 0.54 | 
Cc1ccc(-n2cccc2CC(=O)NCCN(C)C)cc1 | -10 | 1.46 | 
CC(C)N1CCN(C(=O)[C@@H]2C[C@H](Oc3ccccc3)CN2C2CCOCC2)CC1 | -7 | 0.9 | 
C#CC(C)(CC)NC(=O)C1CCCCC(=O)N1 (stereo not given) | -9 | 0.97 | 
O[C@@]1(C(F)(F)F)CCN(Cc2cccnc2)C1 | -1 | 0.16 | 

SMILES | % Inhibition [%] | Z score | Z score (2 µM)
Cc1cccc(NC(=O)C2[C@@H]3C=C[C@]4(O3)C(C(=O)NC3CCCCC3C)N(C3CCC(C)CC3)C(=O)[C@H]24)c1 (stereo not given in full) | -12 | 1.89 | 
O=C(c1cc(N2CCNC2=O)ccc1Cl)N1CCNCC1 | -3 | 0.37 | 
CC(=O)NCc1ccc(C(=O)NC(C2CC2)C2CC2)s1 | 0 | -0.07 | 
COc1ccccc1CN1CCN2C(=O)N(C3CCOCC3)C[C@H]2C1 | 10 | -1.17 | 
CC(C)n1ccnc1Cn1nc(C(F)(F)F)ccc1=O | -12 | 1.87 | 
C[C@H](NC(=O)N[C@H]1CCCC[C@H]1CC(F)(F)F)c1cccnc1 | -1 | 0.18 | 
O=C1NC[C@@H]2CCC[C@@H](CCOc3ccccc3C(=O)N3CCN(C4COC4)C[C@@H]13)O2 | -9 | 1.37 | 
COc1cccc(CN2C[C@@H](O)C[C@H]2c2nnc3n2CCN(C(=O)C(C)C)C3)c1OC | 5 | -0.78 | 
CC1CCC(C(N)=O)C(C)N1C(=O)C(F)F (stereo not given) | -3 | 0.64 | 
CC1(C)NC(=O)N(CC(=O)N[C@@H](Cc2ccccc2)c2ccccc2)C1=O | -2 | 0.33 | 
Cc1cc(C)nc(NCCC(=O)N2CCc3ccccc3C2)n1 | -20 | 2.82 | 
CCc1ccc(C(=O)N2CCN(C(=O)c3nnn4c3CO[C@H](c3ccc(Cl)cc3)C4)CC2)cc1 | -30 | 2.76 | 
CC(=O)N1C(=O)c2ccc(Oc3cccc(N4C(=O)c5cccnc5C4=O)c3)cc2C1=O | 4 | -0.59 | 
Cc1cnc(C(=O)N2CCC(CNC(=O)c3ccc4c(c3)ncn4C)CC2)cn1 | -1 | 0.17 | 
Cc1ccc(S(=O)(=O)N[C@@H](C)C(=O)NCc2cscn2)c(C)c1 | -5 | 0.6 | 
CN(C)S(=O)(=O)CCNC(=O)COc1cccc2c1ccn2Cc1ccccc1 | -14 | 1.72 | 
CCCC(C#N)NC(=O)C(O)C1CCN(C(=O)OC(C)(C)C)CC1 (stereo not given) | -15 | 1.77 | 
O=C(NC1CCCCC1)[C@H]1CCCN(c2cnn(Cc3ccccc3)c(=O)c2)C1 | 32 | -3.6 | 
CCOc1c(Br)cc(Cl)cc1NCC(=O)NC(=O)NC1CCCC1 | 7 | -0.97 | 
Cc1ccc(-n2nc(C)c3sc(N4CCCC(C(=O)NCC5CCCO5)C4)nc32)cc1 (stereo not given) | -12 | 1.56 | 
O=C(Nc1ccccc1)N(Cc1ccccc1)Cc1ccccc1 | 12 | -2.27 | 

SMILES | % Inhibition [%] | Z score | Z score (2 µM)
CC(C)Nc1cccc(CNC(=O)C2(C)CC3CCC2O3)c1 (stereo not given) | -18 | 1.79 | 
Cc1n[nH]c(C)c1CC(C)C(=O)N1CCCC1C(C)(C)O (stereo not given) | -2 | 0.21 | 
CC(C)C[C@H](C)CC(=O)NS(=O)(=O)c1ccsc1C(N)=O | 8 | -1.43 | 
Cc1cc(C(=O)N2CCN[C@@H](Cc3ccccc3)C2)ncn1 | -4 | 0.7 | 
Brc1ccc(CNCCn2cnnc2C2CC2)cc1 | 32 | -3.62 | 
Cc1ccc(CNC(=O)N2CCN(S(=O)(=O)c3ccccc3)CC2)s1 | -7 | 0.86 | 
Cc1cnc(C)c(N2CC[C@H]3[C@H](CCC(=O)N3CCCCO)C2)n1 | 2 | -0.46 | 
COc1ccc2cc([C@@]3(C)NC(=O)N(CC(=O)N4CCN(S(C)(=O)=O)CC4)C3=O)ccc2c1 | -11 | 1.54 | 
O=C(N[C@@H](Cc1ccncc1)C1CC(O)C1)c1cccc(-c2ccco2)c1 (stereo not given in full) | 2 | -0.16 | 
CN1CCC[C@H](NC(=O)c2cc(F)cc(Cl)c2O)C1=O | 0 | 0.08 | 
O=C(N[C@H]1CCCc2ccccc21)c1cc(-c2ccccc2)nc2ccccc12 | 0 | 0.01 | 
Cc1onc(-c2ccccc2Cl)c1C(=O)N[C@@H](C)c1nccn1-c1ccccc1 | -7 | 1.28 | 
Cn1ccnc1C(=O)N1C[C@@H](Oc2cccnc2)C[C@H]1C(=O)N1CCOCC1 | 3 | -0.37 | 
CCC(=O)N(Cc1c(-c2cccc(C)c2)noc1N1CCOCC1)C1CC1 | -5 | 0.64 | 
CCOC(=O)c1c(C)[nH]c(C(=O)N2[C@@H]3CC[C@H]2CNC(=O)C3)c1C | -6 | 1.09 | 
CCN(C(=O)CN(C)CCO)c1ccccc1C | -5 | 0.73 | 
FC(F)(F)c1ncnc(N2CCc3nc[nH]c3C2)c1Br | -11 | 1.61 | 
COc1ccc(NC(=O)c2ccc(COC(=O)c3ccc(C)c(O)c3)cc2)cc1 | -13 | 1.82 | 
COc1ccc(CCNCC(=O)Nc2c3c(nc4ccccc24)N(C)CC3)cc1OC |  |  | -0.45 and -0.99
CC[C@@H](CO)NC(=O)Nc1cccnc1 | -11 | 0.95 | 
